# The campaign covered roughly 110,000 compounds. About 40 (0.04%) were called active. Inconclusive results, whose numbers are uncertain, are shown with a selection of clear calls. Calls follow the shape of the dose curve; as a rule, active = well fitted curve in the direction sought with a large enough effect in the signal ratio (not every such curve was filed as active); inconclusive = small, poorly fitted or top-dose-only effect, or a change in a side signal; inactive = flat fitted curve, though single readings scatter; the % refers to the signal ratio. Potencies of inconclusive entries are doubtful fits and often do not repeat.
# Experiment: IkB Signaling;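 as to IkBa stabilization activation: 0% = basal untreated cells and 100% = reference inhibitor full response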
# Conditions: ABC-DLBCL IkBa-CBG/CBR dual luciferase ratio (green luciferase fused to IkBa over red control in OCI-Ly3 lymphoma cells), 4 h; IkBa stabilization activation: at 57.1 µM (top of the series), scaled: untreated 0%, proteasome inhibitor 100% unless noted
# How it was run: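 Curves were fitted separately to fusion (green), unfused (red) and ratio luminescence, then classed by r2, magnitude and activity. Cells: OCI-Ly3, 4 h compound plus doxycycline at 37C; 10 uM MG-132 defined full response.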
# Potency is read from the fitted curve at half-maximal effect.
Compound,IkBa stabilization activation,Potency
CCOc1ccc(-c2c(C)nn3c(C)c(C(=O)NCCN(C)C)cnc23)cc1OCC,inconclusive: -1.53% [signal inhibitor],
COc1ccccc1N=c1oc2cc(O)ccc2cc1C(=O)NCC1CCCO1 (configuration not stated),inconclusive: 14.2% [signal inhibitor],
O=C(Cn1ncn2cccc2c1=O)NCc1cccc(Br)c1,inconclusive: 0.642% [signal inhibitor],
COc1ccc(N(CC(C)C)S(=O)(=O)c2nnc(NC(=O)c3ccco3)s2)cc1,inconclusive: -1.06% [signal inhibitor],
COc1ccc(NC(=O)c2cc(-c3ccc(F)cc3)no2)cc1OC,inconclusive: -0.873% [signal inhibitor],
Cc1cccc(Cn2c(N3CCCCC3C)nc3c2c(=O)[nH]c(=O)n3C)c1 (configuration not stated),inconclusive: 2.43% [signal inhibitor],
Cc1occc1C(=O)Nc1ccccc1NC(=O)c1ccoc1C,inactive,
CCCNC(=O)Cn1nc(-c2ccc(C)cc2)c2cnc3ccc(CC)cc3c21,inactive,
CCn1c(C)c(C)c2cc(C(=O)N3CCN(c4ccccc4)CC3)ccc21,inconclusive: 2.36% [signal inhibitor],
CN(C)c1ncnc2ccc(-c3cccc(NS(C)(=O)=O)c3)cc12,"inactive: -2.04% [at 11.4 µM, scaled: untreated 0%, proteasome inhibitor 100%]",
Cc1n[nH]c(C)c1S(=O)(=O)N1CCCC(C(=O)N2CCN(c3ccc(Cl)cc3)CC2)C1 (configuration not stated),inconclusive: 9.7% [signal inhibitor],
CN(C)CCN(Cc1ccccc1)S(=O)(=O)c1csc(C(N)=O)c1,inactive,
COc1cccc(Nc2ncc3nc(C)c(=O)n(Cc4cccs4)c3n2)c1,"inactive: -3.26% [at 11.4 µM, scaled: untreated 0%, proteasome inhibitor 100%]",
CCCCc1nn2c(=O)cc(COC(=O)c3ccc4c(c3)OCO4)nc2s1,inconclusive: -1.05% [signal inhibitor],
O=C(CCCn1c(=O)[nH]c2ccc(Br)cc2c1=O)N1CCN(c2cccc(Cl)c2)CC1,inconclusive: 13.3% [signal inhibitor],
COc1ccccc1C(=O)NCC(c1ccc(N(C)C)cc1)N1CCc2ccccc21 (configuration not stated),inconclusive: 7.81% [signal inhibitor],
Cc1noc(C)c1C(=O)OCC(=O)c1cc(C)n(Cc2ccccc2Cl)c1C,inconclusive: 3.65% [signal inhibitor],
Nc1ccn([C@H]2CC[C@H](CO)O2)c(=O)n1,inactive,
CCOc1ccc(-c2cn3c(n2)sc2cc(C(=O)NCCCN4CCCCC4)ccc23)cc1,inconclusive: -0.497% [signal inhibitor],
COc1cc(NC(=O)c2ccc(-c3nc(CSc4ccccc4)c(C)o3)cc2)cc(OC)c1,inconclusive: -1.5% [signal inhibitor],
CCSc1nnc(NC(=O)c2ccccc2)s1,,"inconclusive: 12.6 µM [signal inhibitor, partial curve]"

Compound,IkBa stabilization activation,Potency
O=C(Nc1sc2c(c1C(=O)O)CCC2)c1cccs1,,"inconclusive: 31.6 µM [signal inhibitor, partial curve]"
COC(=O)c1cc2oc(C)cc2n1Cc1ccc(Br)cc1F,inconclusive: -2.59% [signal inhibitor],
COc1ccc(/C=N\n2nnc3ccccc32)cc1,inconclusive: 2.4% [signal inhibitor],
O=C(O)/C=C(/C(=O)O)[C@]12CCN3CC4=CCO[C@@H]5CC(=O)N[C@@H]1[C@H]5[C@H]4C[C@H]32,"inactive: 1.82% [at 11.4 µM, scaled: untreated 0%, proteasome inhibitor 100%]",
CCc1ccc(-n2c(=O)c3cccnc3n2CC(=O)NCc2ccccc2)cc1,inconclusive: 1.94% [signal activator],
Oc1c(C(c2ccccn2)N2CCOCC2)ccc2cccnc12 (configuration not stated),inconclusive: 9.92% [signal inhibitor],
CC(c1nnc(SCC(=O)c2c(N)n(C)c(=O)n(C)c2=O)n1-c1ccc(Cl)cc1)N(C)C (configuration not stated),inactive,
CC(C)OCCCn1c(=NC(=O)c2ccncc2)c(C#N)cc2c(=O)n3ccccc3nc21,inactive,
OCCN[C@@H]1c2cc(Cl)ccc2-c2c(Cl)cc(Cl)cc21,"inactive: -0.727% [at 11.4 µM, scaled: untreated 0%, proteasome inhibitor 100%]",
O=C(C1CCCN(S(=O)(=O)c2cccc3nonc23)C1)N1CCC(Cc2ccccc2)CC1 (configuration not stated),inconclusive: 2.04% [signal inhibitor],
Cc1cc(NC(=O)c2cccc(S(=O)(=O)N3CC(c4ccccc4)CC3=O)c2)no1 (configuration not stated),inconclusive: 2.02% [signal inhibitor],
Cc1ccc(C)c(NC(=O)n2ncc3cc(Cl)ccc32)c1,inconclusive: -0.54% [signal inhibitor],
COCCCNC(=O)Cn1cnc2sc(C)c(S(=O)(=O)N3CCC(C)CC3)c2c1=O,inconclusive: -0.344% [signal inhibitor],
Cc1ncc(CO)c2c1Oc1nc(-c3ccccc3Cl)nc(SCc3ccccc3F)c1C2,inactive,
CCn1c(SCC(=O)O)nnc1-c1cc2c(C)nn(-c3ccccc3)c2s1,inconclusive: 2.05% [signal inhibitor],
Cc1ccc(CCNC(=O)c2ccc3nc(N4CCC(C)CC4)sc3c2)cc1,inconclusive: 0.683% [signal inhibitor],
COc1ccc(-c2nc3sc(CCNC(=O)c4ccco4)c(C)n3n2)cc1,inconclusive: -3.45% [signal inhibitor],
CCS(=O)(=O)Nc1ccc(-c2cn3ccsc3n2)cc1,inactive,
Cn1cc(CN(C(=O)Nc2ccccc2)C2CCCCC2)c2ccccc21,inconclusive: 0.303% [signal inhibitor],
Cn1c(Cn2cnc3ccccc32)nnc1SCC(=O)CC(=O)Nc1ccccc1,,"inconclusive: 25.1 µM [signal inhibitor, partial curve]"
COc1ccc(Cn2nnnc2CN(Cc2cc3cc(C)ccc3[nH]c2=O)C2CCCC2)cc1,inactive,

# From PubChem BioAssay AID445 (National Center for Advancing Translational Sciences (NCATS), 2006)
